Data as given in patent publication US20230295324A1 (published 2023).
Blank lines part the entries; values can stand above or below the binder they belong to.

Target: T1, human OX40 on cells (CHO-K1/hu OX40) (human, UniProt P43489 29-277)
T1 construct: whole, on cells; Also used here for OX40 on the HEK293/OX40/NF-kb reporter cells and on human T cells in the functional assays; also called CHO-K1/OX40; human OX40 cells
T1 sequence (looked up): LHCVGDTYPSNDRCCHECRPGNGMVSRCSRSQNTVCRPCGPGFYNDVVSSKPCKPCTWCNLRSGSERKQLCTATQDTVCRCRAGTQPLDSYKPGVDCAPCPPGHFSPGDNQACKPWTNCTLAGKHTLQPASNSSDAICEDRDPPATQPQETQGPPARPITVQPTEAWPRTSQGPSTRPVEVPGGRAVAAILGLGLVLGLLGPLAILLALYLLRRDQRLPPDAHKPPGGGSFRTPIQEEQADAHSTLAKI
Assay: FACS, CHO-K1/hu OX40 cells
Experimental: This example is intended to investigate the in vitro binding activity of OX40×TAA bispecific antibodies obtained in Example 9 to human OX40. The antibody binding assay at the cellular level was performed using a CHO-K1 cell strain overexpressing human OX40 (CHO-K1/hu OX40). Briefly, CHO-K1/hu OX40 cells were digested, resuspended in an F12K complete medium, and washed with PBS, and the cell density was adjusted to 1×10⁶ cells/ml with PBS. The cells were seeded in a 96-well V-bottom plate (Corning, #3894) at 100 μL/well, followed by the addition of test antibodies diluted in a 3-fold gradient at concentrations that were 2 times the final concentrations at 100 μL/well. The cells were incubated at 4° C. for 1 h away from light. Thereafter, the cells in each well were rinsed twice with 100 μL of pre-cooled PBS, and centrifuged at 500 g at 4° C. for 5 min, and then the supernatant was discarded. […] The plate was incubated away from light at 4° C. for 30 min. The cells in each well were rinsed twice with 100 μL of pre-cooled PBS, and centrifuged at 500 g at 4° C. for 5 min, and then the supernatant was discarded. Finally, the cells in each well were resuspended in 200 μL of pre-cooled PBS, and the fluorescence signal values were read using NovoCyte flow cytometer (ACEA Biosciences).

EC50: 2.8 nM
Maximum MFI: 282000 MFI
B1: PR004276 (bispecific antibody, human IgG1, kappa)
light: EIVMTQSPATLSVSPGERATLSCRASQSISSNLGWYQQKPGQAPRLLIYGASTRATGIPARFSGSGSGTEFTLTISSLQSEDFAVYYCQQYQSWPPLTFGGGTKVEIKRTVAAPSVFIFPPSDEQLKSGTASVVCLLNNFYPREAKVQWKVDNALQSGNSQESVTEQDSKDSTYSLSSTLTLSKADYEKHKVYACEVTHQGLSSPVTKSFNRGEC
heavy: QVQLVESGGGVVQPGRSLRLSCAASGFTFRSFGMHWVRQAPGKGLEWVAVISYDASNEYYADSVKGRFIISRDNSKDTLYLQMNSLRAGDTAVYYCAKGGGLRWYFAYWGQGTLVTVSSASTKGPSVFPLAPSSKSTSGGTAALGCLVKDYFPEPVTVSWNSGALTSGVHTFPAVLQSSGLYSLSSVVTVPSSSLGTQTYICNVNHKPSNTKVDKKV[sequence of human IgG1 Fc with changes not given]EPKSSDKTHTPPPPPRTEVQLLESGGGLVQPGGSLRLSCAASGFTFSSYAMSWVRQAPGKGLEWVSAISGRGGSTFYADSVRGRFTISRDNSKNTLYLQMNSLRAEDTAMYYCVDGTTGTTDVDYWGQGTLVTVSS
notes: IgG-VH tetravalent symmetric structure: PR002408 IgG (anti-B7H4) with the VH of PR002067 via linker H1_15-RT; human IgG1 Fc (L234A, L235A); also called B7H4xOX40 bispecific antibody

EC50: 3.46 nM
Maximum MFI: 274000 MFI
B2: PR004277 (bispecific antibody)
chain 1: QVQLVESGGGVVQPGRSLRLSCAASGFTFRSFGMHWVRQAPGKGLEWVAVISYDASNEYYADSVKGRFIISRDNSKDTLYLQMNSLRAGDTAVYYCAKGGGLRWYFAYWGQGTLVTVSSASTKGPSVFPLAPSSKSTSGGTAALGCLVKDYFPEPVTVSWNSGALTSGVHTFPAVLQSSGLYSLSSVVTVPSSSLGTQTYICNVNHKPSNTKVDKKVEPKSC
chain 2: EIVMTQSPATLSVSPGERATLSCRASQSISSNLGWYQQKPGQAPRLLIYGASTRATGIPARFSGSGSGTEFTLTISSLQSEDFAVYYCQQYQSWPPLTFGGGTKVEIKRTVAAPSVFIFPPSDEQLKSGTASVVCLLNNFYPREAKVQWKVDNALQSGNSQESVTEQDSKDSTYSLSSTLTLSKADYEKHKVYACEVTHQGLSSPVTKSFNRGECEPKSSDKTHTPPPPPEVQLLESGGGLVQPGGSLRLSCAASGFTFSSYAMSWVRQAPGKGLEWVSAISGRGGSTFYADSVRGRFTISRDNSKNTLYLQMNSLRAEDTAMYYCVDGTTGTTDVDYWGQGTLVTVSS[sequence of human IgG1 Fc with changes not given]
notes: Fab of PR002408, VH of PR002067, L1 H1_15, L2 human IgG1 hinge (C220S); human IgG1 Fc (L234A, L235A); also called B7H4xOX40 bispecific antibody (Fab-HCAb)
